# Assay results taken from ChEMBL document CHEMBL4888484, “Replenishing the malaria drug discovery pipeline: Screening and hit evaluation of the MMV Hit Generation Library 1 (HGL1) against asexual blood stage Plasmodium falciparum ,using a nano luciferase reporter read-out” (2022).
# Among all 150,000 compounds or so, about 540 (0.36%) showed an effect of 50% or more. This is one part of the list.
# Tested on: Plasmodium falciparum
# Assay: Primary screen in NF54 nanoGlo assay, in single point, at 2uM, 72h; a lower Z score goes with more inhibition
# Assay type: functional, Erythrocyte
# Conditions: timepoint 72 hour
Compound,% Inhibition [%],Z score
O=C(c1ccc2nsnc2c1)N1CC[C@H](n2ccnn2)C1,6,-0.79
CCN(Cc1nc(C)no1)C(=O)c1n[nH]c(N)c1Cl,14,-1.8
CCN(CC)C(=O)c1cnc2nc(C)ccc2c1Nc1cc(C)cc(C)c1,-7,1.11
CN1CCOc2ccc(NC(=O)N3CCC[C@H]3c3cccc(F)c3)cc21,-5,0.59
CCC1CN(CCNC(=O)C2CCC2c2ccc(F)cc2)CCO1 (centres undefined),-11,1.68
CN1CCC(N(c2ccccc2)S(=O)(=O)c2ccsc2)CC1,-8,0.89
OC1CCN(c2cc([C@H]3CCOC3)nc(N3CC(O)C3)n2)CC1,-6,0.78
CC[C@H](C)N(CC(=O)O)C(=O)Cc1cccc(F)c1F,-13,1.59
COc1ccc(Cl)cc1NC(=O)c1sc2ncnc(N3CCc4ccccc4C3)c2c1C,-1,0.11
O=C(NCCC1=CCCCC1)c1ccc(CN2CC(=O)N3CCC[C@H]3C2=O)cc1,-21,3.89
CC1CN(CCN2CC(C#N)C3(C2)C(=O)Nc2ccccc23)CCO1 (centres undefined),-9,1.34
COc1ccc2cc(C(=O)N3CC(c4nc(-c5cccc(C(F)(F)F)c5)no4)C3)[nH]c2c1,-8,1.58
CC(C)NC(=O)N1CCN2C(=O)N(C(C)C)C(=O)[C@H]2C1,-19,3.09
Nc1nonc1-c1noc(COc2ccc(Br)cc2)n1,-10,1.28
COc1ccc(CCN(CCc2nc(-c3ccc(C)cc3)no2)C(=O)Cc2ccc(F)cc2)cc1OC,-9,1.61
CC(C)(C)[C@@H](O)CCNS(=O)(=O)C1CC1,-11,1.61
O=C(NCc1ccccc1)C1CCN(c2nc3cc(Cl)ccc3s2)CC1,-5,0.95
Cc1nc(N2CCOCC2)nc(C)c1NC(=O)Nc1ccccc1F,-6,0.99
CN(c1ccc(Cl)c(C(=O)NCc2ccccn2)c1)S(C)(=O)=O,8,-1.12
N#Cc1c(-c2ccccc2)ccn(Cc2cccc(C(F)(F)F)c2)c1=O,-5,0.95
Cc1nn(C)cc1[C@H](C)Nc1ncnc2[nH]cnc12,4,-0.84

Compound,% Inhibition [%],Z score
CCc1cc(N2CCc3[nH]cnc3C2)nc(N2CCCC2)n1,-9,0.89
CCCc1occc1C(=O)N1CCC(Cc2ncc[nH]2)CC1,-1,0.28
CC(C)c1cnc(NCCc2noc(C3CC3)n2)nc1,7,-0.85
COCCO[C@H]1COCCN(Cc2ccccn2)C1,30,-3.44
CC(NCC1COC2(CCCC2)O1)c1cccc(F)c1 (centres undefined),-18,2.4
O=C(CNC(=O)c1cccc(Br)c1)NCc1cscn1,-5,0.7
O=C(c1ccc2c(c1)CCO2)N(CCO)Cc1ccc(Cl)cc1,2,-0.16
COCCOC[C@]1(CNC(=O)c2cccc(OC)c2)C[C@@H](O)[C@@H](O)C1,-11,1.64
CCS(=O)(=O)N1CC[C@H]2C(=O)NCCCCCN(Cc3cccnc3)[C@@H]2C1,-14,1.98
Cc1ncnc(NCc2ccc(CN3CCCC3)cc2)c1C,0,0.03
CN(CCN1CCOC1=O)C[C@@H]1CC=CCC1,6,-1.16
COC(=O)c1ccc(-c2nc(CN(C[C@H]3CCC(=O)N3)C(C)C)c(C)o2)cc1,-2,0.34
CN1CCN(CCN(Cc2ccc(Br)cc2F)C(=O)CC2CCCC2)CC1,-4,0.66
O=C1NCCN1c1cccc(N2C(=O)N[C@@H](Cc3c[nH]c4ccccc34)C2=O)c1,-10,1.94
CCn1cc(-c2nn(C)cc2C(=O)NCC2(C(N)=O)CCCC2)cn1,-16,1.71
O=C(C1CCC1)N1CCc2sc(S(=O)(=O)Nc3ccc(F)c(Cl)c3)cc2C1,3,-0.52
O=S(=O)(CCN1CCCC1)N1CCc2c(F)cc(F)cc21,-3,0.33
O=C(Cc1ccccc1F)N[C@H]1CCOC[C@@H]1O,-3,0.6
O=C(CCCN1C(=O)CNC1=O)N1CCN(Cc2ccc3c(c2)OCO3)CC1,-9,1.41
CC1CCC(NS(=O)(=O)CC(=O)N2CCC[C@@H]2Cc2ccccc2Cl)CC1 (some centres undefined),1,-0.28
O=C1NCCN1C(=O)NCc1ccc(-c2ccoc2)o1,3,-0.43
